Source: PubChem BioAssay AID488969 (Vanderbilt High Throughput Screening Facility, 2010)
In all, about 110,000 compounds were measured (“z-score”: median about -0.1, highest 2% from about 2 on). Some of the results follow. The source made the active and inactive calls.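 How the source made its calls: active means z-score in the third read window above 3 or below -3; inactive means the rest.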

molecular target: Metabotropic glutamate receptor 8 (Rattus norvegicus) (UniProt P70579); experiment: rat mGluR8 modulators via GIRK flux, primary screen, cell-based, thallium flux, HTS (AID 488969); details: HEK293 rat mGluR8, GIRK (G protein-gated inwardly rectifying potassium channel) thallium flux, FluoZin2; at 10 µM; stronger effect = higher value; submaximal glutamate (EC20) added with thallium
Sequence of UniProt P70579 (P70579 whole entry, looked up): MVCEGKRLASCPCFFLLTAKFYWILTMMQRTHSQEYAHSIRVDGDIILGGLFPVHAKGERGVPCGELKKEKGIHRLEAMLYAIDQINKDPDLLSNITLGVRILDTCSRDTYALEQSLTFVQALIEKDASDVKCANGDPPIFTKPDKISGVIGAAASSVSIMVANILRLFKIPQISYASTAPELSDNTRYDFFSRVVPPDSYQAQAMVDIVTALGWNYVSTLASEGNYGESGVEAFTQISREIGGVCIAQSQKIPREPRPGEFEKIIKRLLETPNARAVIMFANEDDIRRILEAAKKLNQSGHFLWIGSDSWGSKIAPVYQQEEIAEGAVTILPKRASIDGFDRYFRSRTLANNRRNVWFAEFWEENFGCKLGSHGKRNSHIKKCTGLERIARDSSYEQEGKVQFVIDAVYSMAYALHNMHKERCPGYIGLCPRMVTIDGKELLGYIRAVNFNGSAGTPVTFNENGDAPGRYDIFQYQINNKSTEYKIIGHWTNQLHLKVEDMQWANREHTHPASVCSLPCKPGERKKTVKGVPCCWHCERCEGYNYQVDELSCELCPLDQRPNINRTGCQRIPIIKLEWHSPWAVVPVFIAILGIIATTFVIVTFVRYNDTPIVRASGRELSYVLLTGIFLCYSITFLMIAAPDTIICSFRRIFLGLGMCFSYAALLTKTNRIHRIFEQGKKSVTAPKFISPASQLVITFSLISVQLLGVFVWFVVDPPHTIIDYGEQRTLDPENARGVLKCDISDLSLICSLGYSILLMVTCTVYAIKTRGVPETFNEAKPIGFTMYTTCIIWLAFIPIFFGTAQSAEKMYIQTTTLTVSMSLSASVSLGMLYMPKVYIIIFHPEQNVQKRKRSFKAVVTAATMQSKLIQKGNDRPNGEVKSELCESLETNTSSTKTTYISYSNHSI

Structure (SMILES) | z-score
COc1ccc2occ(NC(C)=O)c2c1 | 0.453
CCN(CC)c1ccc(NC(=O)c2ccccc2Br)cc1S(=O)(=O)Nc1ccccc1OC | 0.207
CC1C[C@@]2(NC(=O)NC2=O)C(C)CN1C (some centres undefined) | -0.0512
COc1ccc(Nc2ncc(C(=O)N3CCN(Cc4ccccc4)CC3)c3ccccc23)cc1 | -0.319
CN(NC(=S)Nc1ccc(OC(F)F)cc1)C(=S)Nc1ccc(OC(F)F)cc1 | 0.288
CC(Sc1nnc(-c2ccc(O)cc2)o1)C(=O)Nc1cccc2ccccc12 (centres undefined) | -0.795
Cc1nnc(C)n1/N=C/c1ccc(C(=O)O)cc1 | -0.174
O=C(CCCCn1c(=S)[nH]c2ccsc2c1=O)NCc1ccco1 | -0.611
Cc1c(Cl)cccc1NC(CC(=O)c1ccccc1)C(=O)O (centres undefined) | -0.125
CCc1ccccc1NCC(=O)Nc1ccccc1C(=O)OC | -0.497
Cc1ccsc1C(=O)OCC(=O)Nc1ccc(Cl)cc1C(F)(F)F | -0.158
Cc1nccn1CCc1n[nH]c(=S)n1Cc1ccccc1 | -0.156
O=C(Nc1c(-c2ccccc2)nc2ccc(Cl)cn12)c1cccs1 | 0.806
O=C(COC(=O)CCCSc1nc2ccccc2[nH]1)Nc1ccc(Cl)cc1 | -0.754
Oc1c(Cl)cc(Cl)cc1CNc1ccc(Br)cn1 | 0.354
O=C(CN1C(=O)CCS(=O)(=O)c2ccccc21)Nc1cccc(Cl)c1 | 0.847
S=C(NC1CCCCC1)N(CCc1nc2ccccc2[nH]1)C1CCCC1 | -1.02
CN(C)CCCN(C(=O)c1ccc2c(c1)CCCC2)c1nc2c(F)cccc2s1 | -0.121
Cc1nnc(SCC(=O)N2CCc3ccccc32)n1-c1ccccc1 | 0.0722
CCOc1ccc(NS(=O)(=O)c2ccc(NC(C)=O)c(OC)c2)cc1 | 0.00898
CCCCN(C)C(=O)C(Cc1ccccc1)NS(=O)(=O)c1ccc2c(c1)c(=O)n(C)c(=O)n2C (centres undefined) | 0.0206
COc1cccc(C(=O)CN2CCC(NC(=O)NC3CCCCC3)CC2)c1 | 0.00206

Structure (SMILES) | z-score
O=C(NCCc1c[nH]c2ccccc12)C(=O)NCC(c1ccco1)N1CCN(c2ccc(F)cc2)CC1 (centres undefined) | -0.165
Cc1oc(-c2ccccc2F)nc1CS(=O)(=O)CC(=O)N1CCCCCC1 | -0.805
COc1ccc(CNC(=O)C(C#N)c2nc3ccccc3nc2N2CCCC2)cc1 (centres undefined) | active: -4.86
Cc1cccn2c(=O)c3cc(C(=O)N4COCC4(C)C)n(C)c3nc12 | -0.119
O=C(NCc1ccccc1)c1ccc(Cl)cc1[N+](=O)[O-] | -0.0935
Nc1c(C(=O)Nc2ccccc2)sc2nc3c(c(-c4ccco4)c12)CCC3 | -0.165
CCCc1cc(Nc2ccccc2OCC)n2ncnc2n1 | -0.871
Cc1ccc(CSCC(=O)N2CCN(c3ccc(F)cc3)CC2)cc1 | -0.408
CC(C)Cn1c(SCC(=O)c2c(N)n(C)c(=O)n(C)c2=O)nc2ccccc21 | -0.371
CCn1c(SCC(=O)Nc2ccc3c(c2)oc2ccccc23)nnc1-c1ccc(N)cc1 | -0.0175
COc1ccc(NC(=O)C(C)N(c2ccc(C)cc2)S(C)(=O)=O)c(OC)c1 (centres undefined) | -0.397
COc1ccc(-c2cc(C(F)(F)F)n3nc(C(=O)NCc4ccco4)c(Cl)c3n2)cc1 | 0.638
O=C(Nc1ccc(CN2CCOCC2)cc1)c1ccc(-c2cc(Cl)ccc2Cl)o1 | -0.386
O=C(Nc1ccc(OC(F)F)cc1)Nc1cccc(C(F)(F)F)c1 | 1.31
COc1ccc(Oc2nc3ccccc3nc2C(F)(F)F)cc1 | -0.00913
O=C(O)c1cnn2c1NC(c1ccc(F)cc1)CC2C(F)(F)F (centres undefined) | -1.57
O=C(NNC(=O)c1cccnc1)Nc1ccccc1 | -0.111
O=S(=O)(Nc1ccc(S(=O)(=O)N2CCOCC2)cc1)c1ccccc1 | 0.605
CC(C)OCCCNC(=O)Cn1nc(-c2ccccc2)ccc1=O | 0.151
O=C(O)C1C(c2ccccc2)C(C(=O)OCCCO)C1c1ccccc1 (centres undefined) | -0.392
Cc1ccc(OCCNC(=O)c2cc(-n3cnnc3)ccc2Cl)cc1C | -0.148
O=c1oc(-c2cccs2)nc2ccccc12 | -0.0468

Structure (SMILES) | z-score
Cc1cc(-n2c(C)cc(C(=O)CSc3nnc4sc5ccccc5n34)c2C)no1 | -0.911
CCOc1ccc(N2C(=O)CC(SC(=NC)Nc3ccc(F)cc3)C2=O)cc1 (centres undefined) | active: 3.7
CCOC(=O)CCCCC(=O)c1[nH]c(=O)[nH]c1CSc1nc(-c2ccccc2)c(C#N)c(=O)[nH]1 | -0.123
OCCNC(=S)NCCc1ccccc1 | -0.0551
Cc1cc(C)n(-c2cc(-c3ccccc3)nc(C)n2)n1 | 0.233
O=C(CCSCCc1ccncc1)NCCCN1CCOCC1 | -0.634
O=C1CSC(c2ccccc2)N1c1nc(-c2ccc(Cl)cc2Cl)cs1 (centres undefined) | -0.0976
CCOC(=O)c1cc(-c2ccccc2)sc1NC(=O)c1ccc(OC)c(OC)c1 | -0.22
C/C(CC(=O)Nc1ccccn1)=N\NC(=O)c1ccc(C)cc1 | 0.0861
O=C(Cc1nnc(NC(=O)Nc2ccccc2)s1)NCc1ccccc1 | -0.16
Fc1ccc(-c2nnc(NC3=NCCCCC3)o2)cc1 | -0.435
CCN1/C(=C/c2ccc3cccc(C)c3[n+]2CC)Sc2ccccc21 | -1.51
OCCCc1nc2n(n1)C(c1cccs1)C=C(c1ccc(Br)cc1)N2 (centres undefined) | active: 5.08
O=C1CN(C(=O)c2ccccc2F)c2ccccc2N1 | 0.252
COc1cc(/C=C2\SC(c3ccc(C)cc3)=NC2=O)ccc1O | -0.769
C=CCc1ccc(OCCOCCOc2ccccc2[N+](=O)[O-])c(OC)c1 | -0.417
COc1ccccc1C(=O)NCC1CCN(c2ccc(S(=O)(=O)N3CCOCC3)cc2)CC1 | -0.35
COc1ccc(CCNC(=O)Cn2cnc3c(nnn3Cc3ccccc3F)c2=O)cc1OC | -0.0957
COc1ccc(/C=C/C(=O)Nc2nc(C)cc(C)n2)cc1OC | 0.186
COc1ccccc1NS(=O)(=O)c1cc(C)ccc1C | -0.732
CC1(C)N=C(N)NC(Nc2ccc(Br)cc2)=N1 | -0.00115
CC(C(=O)NCc1ccco1)n1cc(C(=O)c2ccco2)c2ccccc21 (centres undefined) | -0.366

Structure (SMILES) | z-score
CCNC(=S)N/N=C/c1cn(Cc2ccccc2F)c2ccccc12 | -0.0856
CC(C)N(C(=O)Nc1ccc2nccnc2c1)C(C)C | -0.935
COC(=O)Cc1[nH]nc2c1C1(C(=O)N(Cc3ccc(Cl)cc3)c3ccccc31)C(C#N)=C(N)O2 (centres undefined) | -0.138
CCCCOC(=O)n1c(=O)oc2cc(S(=O)(=O)N3CCCCC3)ccc21 | -0.244
Cc1ccc(Oc2nc3ccccn3c(=O)c2/C=C(\C#N)C(=O)Nc2c(C)n(C)n(-c3ccccc3)c2=O)cc1 | -0.0585
COc1ccc(OC)c2c1sc(=NC(=O)C(C)(C)C)n2C | 0.232
Cc1ccc(-c2nc3ccccc3c(C(=O)NCc3cccs3)c2C)cc1 | -0.236
CC(C)c1nnc(SCC(=O)N2CCOCC2)n1C | -0.0423
Cc1cc(S(=O)(=O)Nc2ccc(F)cc2)c(C)s1 | -0.352
CC(C)(C)NC(=O)Cn1cnc([N+](=O)[O-])n1 | -0.161
Cc1ccc(S(=O)(=O)c2c(C)nn(-c3ccccc3)c2OC(=O)c2ccc(Br)o2)cc1 | 0.171
COC(=O)c1ccccc1NC(=O)CSc1nnc(C(CO)NC(=O)c2ccccc2Cl)n1C (centres undefined) | -0.238
Cc1csc(SCCn2c(Br)nc3c2c(=O)[nH]c(=O)n3C)n1 | 0.73
CCN(CC)CCNC(=O)CCc1n[nH]c(=O)c2ccccc12 | -0.625
CC(/C=N/n1c(-c2ccco2)n[nH]c1=S)=C\c1ccco1 | 0.1
Cc1cc(Oc2ccc(Cl)cc2)nc(SCC(=O)c2ccccc2)n1 | -0.297
CCOC(=O)c1sc(NC(=O)c2cc3n(n2)C(C(F)(F)F)CC(c2ccccc2)N3)c(C(=O)OCC)c1C (centres undefined) | 0.271
CCn1cc(/C=N\NC(=O)Cc2ccc(Cl)cc2)cn1 | -0.396
COc1ccc(N(C)C(=O)c2ccc3nc(-c4ccccc4)c(-c4ccccc4)nc3c2)cc1 | 0.247
COCCNC(=O)Nc1ccc2nc(-c3cccs3)c(-c3cccs3)nc2c1 | -0.235
O=C(NCCCCC(NC(=O)C1CCCCC1)C(=O)O)c1ccccc1 (centres undefined) | 1.57
CN1CCN(c2cc(=O)n(C3CCCCC3)c(=O)[nH]2)CC1 | -0.0935

Structure (SMILES) | z-score
CC(C)C(=O)Nc1cccc(-c2cn3ccsc3n2)c1 | -1.08
COC(=O)c1sccc1-n1cccc1C(=O)C(=O)N1CCCC1 | -0.405
Cc1nn(-c2ccccc2)c(N)c1C(O)(C(F)(F)F)C(F)(F)F | -0.777
Cc1nn(C)c(C)c1NC(=O)c1ccc(Cl)cc1 | 0.387
Cc1ccc(C)c(OCC(=O)Nc2ccc(S(=O)(=O)N3CCN(C)CC3)cc2)c1 | 0.121
Cc1cc(C)cc(NC(=O)C(NCC2CCCO2)c2ccccc2)c1 (centres undefined) | 0.0179
Cc1ccc(NS(=O)(=O)c2ccc(OCC(=O)NCc3ccco3)cc2)cc1 | -0.0298
Cn1ncc(Cl)c(Oc2ccccc2)c1=O | 0.0121
CCOC(=O)c1ccc(NC(=S)NCCCN2CCCCC2)cc1 | 0.0224
NS(=O)(=O)c1ccc(N=Nc2c(-c3ccccc3)[nH]n(-c3nc(-c4ccccc4)cs3)c2=O)cc1 | -0.151
Cc1ccc(-c2nn(CC(=O)O)c(=O)c3ccccc23)cc1 | -0.699
CN(NC(=O)COc1ccccc1)c1ccccc1 | 0.0226
Cc1c(Cl)cccc1NC(=S)/C(=C(\[O-])c1ccc(Cl)s1)[n+]1ccccc1 | 2.24
CCCCC(=O)Nc1cccc(-c2nn3c(C)nnc3s2)c1 | -0.93
O=C(CCCSc1nc2ccccc2[nH]1)NC(c1ccccc1)c1ccccc1 | -0.924
CCCCc1ccc(-c2csc(/C(C#N)=C\c3ccco3)n2)cc1 | -0.0195
CC(C)C1N=C2c3ccccc3N=C(SCc3cc(=O)n4cc(Cl)ccc4n3)N2C1=O (centres undefined) | 0.849
O=C(NCC1CCCO1)C1CCN(S(=O)(=O)c2cccc3nonc23)CC1 (centres undefined) | 0.153
CCCCc1cc(=O)oc2c(CN3CCCC3)c(O)c(Cl)cc12 | 0.402
COc1ccc(NC(=S)NCCSc2ccc(C)cc2)c(OC)c1 | -0.403
CC(C)CC(=O)Nc1nnc(-c2ccco2)s1 | -0.113
